Out of some 39,000 compounds screened, about 220 (0.56%) showed activity. This is one part of the list.
What follows are compounds tested on Escherichia coli K-12 BW25113 (assay: relative growth (OD600 normalised to plate interquartile mean) (fraction); higher = less growth inhibition, active = 0.2 or less). Conditions: 50 µM; LB; incubation time: overnight (16-24 h).
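Further: static incubation at 37 °C against the wild-type strain, values averaged over two biological replicates.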

Row | Compound | relative growth
1 | C[C@@H]1CCCCO[C@H](CN(C)CC2CC2)[C@H](C)CN([C@H](C)CO)C(=O)c2cc(NC(=O)C3CCCCC3)ccc2O1 | inactive: 1.02
2 | C[C@@H]1CN([C@H](C)CO)C(=O)c2cc(N(C)C)ccc2O[C@@H]1CN(C)S(C)(=O)=O | inactive: 1.02
3 | O=C(O)CN1Cc2ccccc2C1=O | inactive: 1.02
4 | COc1c(O)cc(O)cc1O | inactive: 0.896
5 | COC(=O)C1=C2CC[C@H](CO)NC(=O)N[C@@H](Cc3ccccc3)C(=O)NCc3cn(nn3)C[C@H](Cc3ccccc3)NC(=O)c3oc(c(C(=O)OC)c3C(=O)OC)CC[C@H](CO)NC(=O)N[C@@H](Cc3ccccc3)C(=O)NCc3cn(nn3)C[C@H](Cc3ccccc3)NC(=O)C(=C1C(=O)OC)O2 | inactive: 1.02
6 | COCC(=O)N1CC[C@@H]2N(S(C)(=O)=O)CC[C@@]2(C(=O)N2CCOCC2)CC1 | inactive: 0.986
7 | NCCCN | inactive: 0.985
8 | C[C@@H]1CN([C@@H](C)CO)C(=O)Cc2cc(NC(=O)Nc3cccc4ccccc34)ccc2O[C@H]1CN(C)Cc1ccc2c(c1)OCO2 | inactive: 0.995
9 | Cc1ccc(S(=O)(=O)Nc2cccc3c2O[C@H](CN(C)CC2CC2)[C@H](C)CN([C@H](C)CO)C3=O)cc1 | inactive: 0.98
10 | NCc1ccccc1 | inactive: 0.983
11 | Cc1noc(C)c1S(=O)(=O)N(C)C[C@@H]1Oc2ccc(NS(C)(=O)=O)cc2CC(=O)N([C@@H](C)CO)C[C@@H]1C | inactive: 0.999
12 | COc1ccc(NC(=O)N(C)C[C@@H]2Oc3ccc(NC(=O)Nc4cccc5ccccc45)cc3C(=O)N([C@@H](C)CO)C[C@@H]2C)cc1 | inactive: 0.985
13 | COc1ccc(S(=O)(=O)N(C)C[C@@H]2Oc3ccc(NS(=O)(=O)c4cn(C)cn4)cc3CC(=O)N([C@H](C)CO)C[C@H]2C)cc1 | inactive: 0.961
14 | CN1CCN(C(=O)C[C@@H]2CC[C@H]3[C@@H](COc4ccc(NC(=O)C5CCOCC5)cc4C(=O)N3C)O2)CC1 | inactive: 1.03
15 | NC[C@H]1CC[C@H](C(=O)O)CC1 | inactive: 1
16 | C[C@H](CO)N1C[C@H](C)[C@H](CN(C)CC2CCCCC2)Oc2ccc(NS(=O)(=O)c3cn(C)cn3)cc2CC1=O | inactive: 0.976
17 | COC(=O)c1sc2ccccc2c1NC(=O)c1ccc(S(=O)(=O)N2C[C@@]3(C)C[C@@H]2CC(C)(C)C3)cc1 | inactive: 1.01
18 | O=C(O)CCCCCCC(=O)Nc1ccc([C@@H]2O[C@@H](CSCCO)C[C@H](c3ccccc3)O2)cc1 | inactive: 1.02
19 | COc1ccc(S(=O)(=O)Nc2cccc3c2O[C@H](CN(C)S(=O)(=O)c2cn(C)cn2)[C@@H](C)CN([C@@H](C)CO)C3=O)cc1 | inactive: 1.02
20 | COc1ccccc1NC(=O)N(C)C[C@@H]1Oc2cc(Br)ccc2S(=O)(=O)N([C@H](C)CO)C[C@@H]1C | inactive: 1.03

Row | Compound | relative growth
21 | CC(=O)[C@@]12C=CCC[C@@H]1C[C@@H](C(=O)Nc1c(C)cccc1Cl)N2C(=O)c1nc(C)oc1C(F)(F)F | inactive: 1.03
22 | C[C@H](CO)N1C[C@H](C)[C@H](CN(C)C(=O)Nc2ccc3c(c2)OCO3)Oc2ncc(Br)cc2C1=O | inactive: 0.891
23 | O=C(C[C@H]1C[C@@H]2c3cc(NC(=O)c4ccc5c(c4)OCO5)ccc3O[C@@H]2[C@@H](CO)O1)NCC(F)(F)F | inactive: 0.985
24 | CC(C)NC(=O)Nc1ccc2c(c1)C(=O)N([C@H](C)CO)C[C@H](C)[C@H](CN(C)S(=O)(=O)c1ccc(F)cc1)O2 | inactive: 0.998
25 | C[C@@H]1CCCCO[C@@H](CN(C)C)[C@H](C)CN([C@@H](C)CO)C(=O)c2cc(NC(=O)Nc3cccc4ccccc34)ccc2O1 | inactive: 0.978
26 | CO[C@@H]1CN(C)C(=O)c2ccc(NC(=O)c3ccccc3)cc2OC[C@@H](C)N(C(=O)CN(C)C)C[C@H]1C | inactive: 0.993
27 | C[C@H]1CN([C@@H](C)CO)C(=O)c2cc(C#CC3(O)CCCC3)cnc2O[C@@H]1CN(C)C(=O)Nc1ccc2c(c1)OCO2 | inactive: 0.994
28 | C[C@@H]1CCCCO[C@H](CN(C)CC2CCCCC2)[C@H](C)CN([C@@H](C)CO)C(=O)c2cc(NC(=O)Cc3ccccc3)ccc2O1 | inactive: 0.996
29 | C[C@@H]1CN([C@H](C)CO)C(=O)Cc2cc(NC(=O)C3CC3)ccc2O[C@@H]1CN(C)C(=O)Nc1ccccc1 | inactive: 1.01
30 | C=CCC[C@@H](Cc1ccc(F)cc1)C(=O)OC[C@H](Cc1c[nH]c2ccccc12)NC(=O)[C@H](CC=C)CC(=O)N(CCO)Cc1ccccc1 | inactive: 1.1
31 | C[C@@H]1CN([C@@H](C)CO)S(=O)(=O)c2ccc(Br)cc2O[C@@H]1CN(C)S(=O)(=O)c1ccc(F)cc1 | inactive: 1.04
32 | O=C(O)c1ccccn1 | inactive: 0.999
33 | C[C@H](CO)N1C[C@H](C)[C@@H](CN(C)S(C)(=O)=O)OCCCC[C@H](C)Oc2ccc(NS(=O)(=O)c3ccccc3)cc2C1=O | inactive: 1
34 | C[C@@H]1CN([C@H](C)CO)C(=O)c2cccc(NC(=O)CCCCCC(=O)Nc3ccccc3N)c2O[C@@H]1CN(C)Cc1ccc(Oc2ccccc2)cc1 | inactive: 1.03
35 | C[C@@H]1CN([C@@H](C)CO)C(=O)c2cc(NS(=O)(=O)c3ccc(Cl)cc3)ccc2O[C@@H](C)CCCCO[C@@H]1CN(C)S(=O)(=O)c1cccs1 | inactive: 1.04
36 | CCO[C@@H]1OC(=O)C[C@@H]1NC(=O)[C@@H]1CCCN1C(=O)[C@@H](NC(=O)c1ccc(N)c(Cl)c1)C(C)(C)C | inactive: 0.997
37 | C[C@H](CO)N1C[C@H](C)[C@@H](CN(C)S(=O)(=O)c2cccc(F)c2)Oc2cc(C#CCN(C)C)ccc2S1(=O)=O | inactive: 0.988
38 | C[C@@H]1CCCCO[C@H](CN(C)S(=O)(=O)c2ccc(Cl)cc2)[C@@H](C)CN([C@@H](C)CO)C(=O)c2cc(NC(=O)NC3CCCCC3)ccc2O1 | inactive: 1.01
39 | C[C@H]1CN([C@@H](C)CO)C(=O)c2cc(NC(=O)NC3CCCCC3)ccc2O[C@@H]1CN(C)Cc1ccc(-c2ccccc2)cc1 | inactive: 1
40 | C[C@H](O)C#Cc1cnc2c(c1)C(=O)N([C@@H](C)CO)C[C@H](C)[C@H](CN(C)Cc1cncnc1)O2 | inactive: 0.999

Row | Compound | relative growth
41 | CCCNC(=O)N[C@@H]1CC[C@@H](CC(=O)N2CCN(C)CC2)O[C@@H]1CO | inactive: 1
42 | COc1ccc(NC(=O)N(C)C[C@H]2Oc3c(NC(=O)C4CC4)cccc3C(=O)N([C@H](C)CO)C[C@@H]2C)cc1 | inactive: 1.02
43 | C[C@@H]1CN([C@H](C)CO)C(=O)c2cc(NC(=O)Cn3cnnn3)ccc2O[C@H]1CN(C)Cc1ccc(Cl)c(Cl)c1 | inactive: 1.01
44 | C[C@@H]1CCCCO[C@H](CN(C)Cc2ccncc2)[C@H](C)CN([C@@H](C)CO)C(=O)c2cc(NC(=O)Nc3ccc(C(F)(F)F)cc3)ccc2O1 | inactive: 0.979
45 | C[C@H](CO)N1C[C@H](C)[C@H](CN(C)Cc2ccccc2)OCCCC[C@H](C)Oc2ccc(NS(=O)(=O)c3ccc(F)cc3)cc2C1=O | inactive: 0.978
46 | Cc1ccc(S(=O)(=O)N(C)C[C@H]2Oc3ccc(NC(=O)CCCN(C)C)cc3C(=O)N([C@@H](C)CO)C[C@H]2C)cc1 | inactive: 1.04
47 | C[C@@H]1CN([C@@H](C)CO)S(=O)(=O)c2ccc(C#CC(C)(C)O)cc2O[C@@H]1CN(C)C(=O)C1CCCCC1 | inactive: 0.983
48 | C[C@H]1CN([C@@H](C)CO)C(=O)Cc2cc(N(C)C)ccc2O[C@@H]1CN(C)S(=O)(=O)c1ccc(F)cc1 | inactive: 1.02
49 | O=C(CCCCCCC(=O)Nc1ccc([C@H]2C[C@@H](CSc3nc(-c4ccccc4)c(-c4ccccc4)o3)O[C@H](c3ccccc3)O2)cc1)NO | inactive: 0.974
50 | C[C@H](CO)N1C[C@H](C)[C@H](CN(C)Cc2ccc3c(c2)OCO3)Oc2ncc(Br)cc2C1=O | inactive: 1.02
51 | O=C1C[C@]2(c3ccc([N+](=O)[O-])cc3)C(=O)N(CC(F)(F)F)c3cc(CO)ccc3[C@H]2N1CC12CC3CC(CC(C3)C1)C2 | inactive: 0.984
52 | C[C@@H]1CN([C@@H](C)CO)C(=O)Cc2cc(NC(=O)C3CC3)ccc2O[C@@H]1CN(C)C(=O)NC1CCCCC1 | inactive: 0.972
53 | CO[C@@H]1CN(C)C(=O)c2cc(NS(C)(=O)=O)ccc2OC[C@@H](C)N(C(=O)CN(C)C)C[C@H]1C | inactive: 0.989
54 | C/C=C1\[C@H](O[C@@H]2O[C@H](CO)[C@@H](O)[C@H](O)[C@H]2O)OC=C(C(=O)O)[C@H]1CC(=O)OCCc1ccc(O)cc1 | inactive: 1.02
55 | C[C@H](CO)N1C[C@H](C)[C@H](CN(C)Cc2ccc3c(c2)OCO3)OCCCC[C@H](C)Oc2ccc(NC(=O)C3CCCCC3)cc2C1=O | inactive: 1.04
56 | CCCCc1nc(-c2ccc(OCCCN(CC)CC)cc2)cn1-c1ccc(Oc2ccc(Cl)cc2)cc1 | inactive: 0.689
57 | C[C@@H]1CN([C@H](C)CO)C(=O)Cc2cc(NC(=O)Nc3ccc(C(F)(F)F)cc3)ccc2O[C@H]1CN(C)CC1CCCCC1 | inactive: 1.02
58 | COc1ccc(COC[C@]23NC(=S)N(C(=O)c4ccccc4)[C@H](c4ccccc4O2)[C@H]3CO[Si](C)(C)C(C)(C)C)cc1 | inactive: 1
59 | COCC#Cc1ccc2c(c1)O[C@@H](CN(C)C(=O)CN(C)C)[C@H](C)CN([C@@H](C)CO)S2(=O)=O | inactive: 0.954
60 | C[C@H](CO)N1C[C@H](C)[C@H](CN(C)S(C)(=O)=O)Oc2ncc(Br)cc2C1=O | inactive: 1.01

From the supplement of paper PMC9446081
